Among the data in article PMC2538545 are binding values, retold here.

Sequences of proteins named here, by UniProt entry; tags and fusion partners are left off. A change or cut given only in a name is not applied to a line headed by its entry. A line that says so, or that is headed by a name, gives the form on record, which may keep a tag or linker.
Tm5NM-1-(His)6 (P06753-2, form named): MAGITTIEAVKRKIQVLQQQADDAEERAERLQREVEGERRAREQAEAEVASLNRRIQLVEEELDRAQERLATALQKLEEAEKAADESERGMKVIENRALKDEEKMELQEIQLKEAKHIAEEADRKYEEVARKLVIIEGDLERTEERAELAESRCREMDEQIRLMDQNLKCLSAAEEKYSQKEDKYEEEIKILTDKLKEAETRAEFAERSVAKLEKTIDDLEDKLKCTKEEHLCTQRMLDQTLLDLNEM

Experiment [1] deals with endogenous Tm5NM-1 of COS-7 cells (African green monkey (endogenous in COS-7)). The experiment in a line: co-IP; COS-7 cells transfected with TTC9A-flag; 500 ug lysate precipitated with anti-Tm5NM-1 antibody (Chemicon) and protein A/G plus-agarose, goat pre-immune serum as control; anti-flag blot.
For experiment [2], the target named is T1, flag-TTC9A (51–222) (human) (UniProt Q92623).
T1 sequence: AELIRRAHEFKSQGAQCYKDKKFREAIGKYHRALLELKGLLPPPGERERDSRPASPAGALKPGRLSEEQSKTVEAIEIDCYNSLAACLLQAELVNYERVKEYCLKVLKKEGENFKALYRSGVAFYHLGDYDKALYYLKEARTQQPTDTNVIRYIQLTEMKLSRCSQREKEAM
Description: co-IP; COS-7 cells co-transfected with flag-TTC9A or its fragments and Tm5NM-1-(His)6; 400 ug lysate on anti-flag M2 Affinity Gel overnight at 4 C; anti-His blot.

For experiment [3], the target named is T2, flag-TTC9A (1–100) (human) (UniProt Q92623).
T2 sequence: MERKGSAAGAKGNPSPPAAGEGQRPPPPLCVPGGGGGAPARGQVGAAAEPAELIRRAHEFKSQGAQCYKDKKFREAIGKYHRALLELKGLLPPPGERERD
The description is as above.

In experiment [4] the target is T3, flag-TTC9A (1–95) (human) (UniProt Q92623).
T3 sequence: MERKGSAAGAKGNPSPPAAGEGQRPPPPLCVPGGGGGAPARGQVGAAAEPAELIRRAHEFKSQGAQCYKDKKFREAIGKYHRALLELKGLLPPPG
The experiment is described as above.

Experiment [5] has as its target T4, flag-TTC9A (1–50) (human) (UniProt Q92623).
T4 sequence: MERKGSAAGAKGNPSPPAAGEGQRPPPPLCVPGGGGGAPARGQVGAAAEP
The experiment is described as above.

For experiment [6], the target named is TTC9A-flag (full length TTC9A) (human) (UniProt Q92623). Described as above.
Experiment [7] deals with T5, flag-TTC9A (1–110) (human) (UniProt Q92623).
T5 sequence: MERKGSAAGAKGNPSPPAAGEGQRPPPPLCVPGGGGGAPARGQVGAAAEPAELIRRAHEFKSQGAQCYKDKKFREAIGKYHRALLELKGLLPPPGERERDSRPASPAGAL
The description is as above.

Experiment [8] deals with T6, flag-TTC9A (1–105) (human) (UniProt Q92623).
T6 sequence: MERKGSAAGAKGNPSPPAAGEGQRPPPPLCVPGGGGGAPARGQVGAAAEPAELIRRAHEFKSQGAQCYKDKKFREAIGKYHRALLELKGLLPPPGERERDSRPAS
The description is as above.

For experiment [9], the target named is T7, flag-TTC9A (1–161) (human) (UniProt Q92623).
T7 sequence: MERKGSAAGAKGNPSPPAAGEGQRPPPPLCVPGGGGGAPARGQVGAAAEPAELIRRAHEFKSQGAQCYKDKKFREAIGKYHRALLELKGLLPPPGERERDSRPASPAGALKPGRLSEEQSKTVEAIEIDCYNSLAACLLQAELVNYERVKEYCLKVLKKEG
Described as above.

Experiment [10] addresses T8, flag-TTC9A (1–115) (human) (UniProt Q92623).
T8 sequence: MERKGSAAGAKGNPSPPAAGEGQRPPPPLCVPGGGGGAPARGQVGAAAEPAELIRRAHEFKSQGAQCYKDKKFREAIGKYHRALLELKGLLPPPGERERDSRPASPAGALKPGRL
The experiment is described as above.

Experiment [11] has as its target T9, flag-TTC9A (1–128) (human) (UniProt Q92623).
T9 sequence: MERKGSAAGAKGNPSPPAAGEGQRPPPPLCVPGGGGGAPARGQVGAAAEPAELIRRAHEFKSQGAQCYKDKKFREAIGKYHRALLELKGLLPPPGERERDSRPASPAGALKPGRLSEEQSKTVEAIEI
The description is as above.

Experiment [12] has as its target T10, flag-TTC9A (1–197) (human) (UniProt Q92623).
T10 sequence: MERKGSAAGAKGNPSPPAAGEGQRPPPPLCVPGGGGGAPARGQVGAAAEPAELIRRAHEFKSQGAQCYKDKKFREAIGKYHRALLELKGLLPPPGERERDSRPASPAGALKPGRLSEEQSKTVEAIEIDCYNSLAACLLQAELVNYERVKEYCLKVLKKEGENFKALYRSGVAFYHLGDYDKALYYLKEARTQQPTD
Described as above.

For experiment [13], the target named is T11, flag-TTC9A (51–115) (human) (UniProt Q92623).
T11 sequence: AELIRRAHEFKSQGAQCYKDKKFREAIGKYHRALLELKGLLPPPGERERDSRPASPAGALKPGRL
The description is as above.

The target in experiment [14] is T12, flag-TTC9A (1–70) (human) (UniProt Q92623).
T12 sequence: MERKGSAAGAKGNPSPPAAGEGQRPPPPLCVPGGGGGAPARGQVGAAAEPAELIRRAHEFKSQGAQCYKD
Described as above.

The next experiment deals with GST-TTC9A (human) (UniProt Q92623). The experiment in a line: pull-down; GST-TTC9A or GST (60 ug; also 2 or 20 ug) immobilised on Glutathione Sepharose 4B; 300 ug lysate of transfected COS-7 cells, overnight at 4 C in PBS; anti-His blot; only the target purified.

These are yes or no findings as the source states them, for the method shown. In cells and extracts the contact can be indirect. Some results given as binding are weak or reduced against the parent protein; the word gives no strength. For part of these data: Sequences can lack the tags named with a protein.

Regarding “TTC9A-flag (full length TTC9A) (from UniProt Q92623 1-222)”, the binding result in experiment [1] was “binds”.
In the case of “Tm5NM-1-(His)6 (from UniProt P06753-2 1-248)”, the binding entry is recorded as “no binding” in experiment [2]; “binds” in experiment [3]; “binds” in [4]; “no binding” in [5]; “binds” in experiment [6]; “binds” in experiment [7]. Further, the binding entry in experiment [8], in experiment [9], in experiment [10], in experiment [11], in experiment [12] and in experiment [13] was “binds” each time. Moreover, the binding result in experiment [14] is listed as “no binding”; with GST-TTC9A (human), “binds”.
